This is one part of the list. Further columns of the screen follow, without active or inactive calls. Square brackets hold non-standard residues; d marks the D form. Peptide text beside a SMILES is read from it. Hyp = O=C(O)[CH]1C[CH](O)CN1; Phe(ol) = N[CH](CO)Cc1ccccc1; Iva = CC[C](C)(N)C(=O)O; Aib = CC(C)(N)C(=O)O
Legend:
Assay in all cases: Primary Screen for Target Class Profiling of Small Molecule Inhibitors of Methyltransferases
[1] = biological target: Glycine N-methyltransferase (Homo sapiens) (UniProt Q14749); settings: purified enzyme, MTase-Glo SAH luminescence; measured here: GNMT inhibition; at 40 µM; stronger effect = lower value
How it was run: (§1)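 Each enzyme was assayed with SAM and its substrate. SAH formation detected by MTase-Glo luminescence; single-point 40 uM screen[…].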

[2] = biological target: Guanidinoacetate N-methyltransferase (Homo sapiens) (UniProt Q14353); settings: purified enzyme, MTase-Glo SAH luminescence; measured here: GAMT inhibition; at 40 µM; stronger effect = lower value
How it was run: as §1

[3] = biological target: Histamine N-methyltransferase (Homo sapiens) (UniProt P50135); settings: purified enzyme, MTase-Glo SAH luminescence; measured here: HNMT inhibition; at 40 µM; stronger effect = lower value
How it was run: as §1

[4] = biological target: Nicotinamide N-methyltransferase (Homo sapiens) (UniProt P40261); settings: purified enzyme, MTase-Glo SAH luminescence; measured here: NNMT inhibition; at 40 µM; stronger effect = lower value
How it was run: as §1

[5] = biological target: Phenylethanolamine N-methyltransferase (Homo sapiens) (UniProt P11086); settings: purified enzyme, MTase-Glo SAH luminescence; measured here: PNMT inhibition; at 40 µM; stronger effect = lower value
How it was run: as §1
% is scaled to controls: 0 for no effect and ±100 for the full control effect.

Structure (SMILES)	activity change, negative = inhibition [1] [%]	activity change, negative = inhibition [2] [%]	activity change, negative = inhibition [3] [%]	activity change, negative = inhibition [4] [%]	activity change, negative = inhibition [5] [%]
O=C(NCCc1ccccc1)N1CCn2cccc2C1Cc1ccccc1 (stereo not given)	2.39	2.67	-32.1	-0.471	-1.63
COc1cccc(NC(=O)CCc2nnc3n(Cc4ccc(F)cc4)c(=O)c4ccccc4n23)c1	2.29	-0.144	1.02	-4.1	-3.17
CC(C)COc1ccc(CNC(=O)N(Cc2ccc(F)cc2)C2CCN(C)CC2)cc1	3.16	8.16	1.88	-9.58	0.736
CS(=O)(=O)N1CCC(Oc2ccc(C(=O)NCCc3ccccn3)cc2Cl)CC1	-2.34	0.74	0.348	-2.02	3.63
CC(C)CNC(=O)c1ccc2c(=O)n(Cc3ccccc3)c3nn(CC(=O)NC(C)C)c(=O)n3c2c1	0.888	0	1.81	-0.711	-0.251
CCC(C)(NC(=O)C(CCC(N)=O)NC(=O)C1CC(O)CN1C(=O)C(C)(C)NC(=O)C(C)(C)NC(=O)C(CC(C)C)NC(=O)CNC(=O)C(NC(=O)C(C)(C)NC(=O)C(C)(C)NC(=O)C(C)(C)NC(=O)C(Cc1ccccc1)NC(C)=O)C(C)C)C(=O)N1CC(O)CC1C(=O)NC(C)(C)C(=O)NC(CO)Cc1ccccc1 (stereo not given) (Ac-F[Aib][Aib][Aib]VGL[Aib][Aib][Hyp]Q[Iva][Hyp][Aib][Phe(ol)]; configuration not given here)	-2.66	14.4	12.2	1.35	-3.74
COC[C@@H]1CN(C(=O)c2ncccc2C)C[C@H]1C(N)=O	-0.148	3.59	3.07	-0.159	-6.14
CN(c1ccccc1CNc1nc(Nc2ccc3c(c2)CC(=O)N3)ncc1C(F)(F)F)S(C)(=O)=O	-7.49	11	2.94	-53.7	-0.255
O=C(Cn1nc2n(CCc3ccccc3)c(=O)c3ccccc3n2c1=O)Nc1cccc(Cl)c1	4.08	5.22	3.15	2.46	3.34
O=C1CCN(CC(O)C(F)(F)F)c2ccccc2CCN1Cc1ccccc1 (stereo not given)	-2.02	-4.4	0.322	-12.5	-9.8
Cc1noc(C)c1CC(=O)N1CCCCCCNC(=O)[C@@H]2CCCC[C@@H]21	-2.38	-1.86	0.24	-7.67	-3.77
COc1ccc(CCNC(=O)c2c(C)noc2-c2cc(OC)cc(OC)c2)cc1	-0.743	0.987	-0.898	-2.62	-3.37
Cc1ccc(CNC(=O)Cn2ccc3cc(S(=O)(=O)N4CCCCC4)ccc32)o1	1.03	4.83	3.6	-0.106	1.97
NS(=O)(=O)c1cc2c(cc1Cl)NC(C1CC3C=CC1C3)NS2(=O)=O (stereo not given)	-2.66	-4.28	6.57	-16.1	-10.4
CCCCN1C(=O)CC[C@H]2CN(C(=O)Cc3c[nH]c(=O)n(C)c3=O)CC[C@H]21	-5.04	-4.86	-0.95	-11	3.76
CCn1cc(C(=O)N2C[C@@H](CO)[C@H](c3ccccn3)C2)cn1	-2.75	-4.68	-2.49	-7.55	-1.78
CCCn1c(=O)c2ccc(Cl)cc2n2c(=O)n(CC(=O)c3ccc(OC)cc3)nc12	0.043	0	6.9	-1.93	2.64
S=C(S)N1CCCC1	-45.9	-0.701	-3.66	-10.7	2.18
CC1=C(C(=O)O[C@@H]2O[C@H](COC3OCC(O)C(O)C3O)[C@@H](O)[C@H](O)[C@H]2O)C(C)(C)CCC1 (stereo not given in full)	0	-12.5	10.8	-41	-6.57

Structure (SMILES)	activity change, negative = inhibition [1] [%]	activity change, negative = inhibition [2] [%]	activity change, negative = inhibition [3] [%]	activity change, negative = inhibition [4] [%]	activity change, negative = inhibition [5] [%]
CC1(C)CCC2(C(=O)OC3OCC(O)C(O)C3O)CCC3(C)C(=CCC4C5(C)CC(O)C(OC6OC(COC7OCC(O)C(O)C7O)C(O)C(O)C6O)C(C)(C)C5CCC43C)C2C1 (stereo not given)	3.25	14.1	11	-0.599	9.32
Cc1ccc(Cn2c(=O)c3ccccc3n3c(CCC(=O)N4CCN(c5ccccc5F)CC4)nnc23)cc1	-1.22	0	9.12	-10.1	-3.3
Cc1nc(-c2cccc(Cl)c2)n(CC(=O)NCc2ccc(F)cc2)c(=O)c1CCO	-6.53	-7.15	-4.47	-13.6	0.706
Cc1cc(C)cc(NC(=O)Cn2nc3n(CCc4ccccc4)c(=O)c4ccccc4n3c2=O)c1	7.17	2.99	9.38	3.8	6.24
CCOc1ccccc1CN1CCC(C)(c2noc(C3CCOCC3)n2)CC1	-0.911	-0.197	-12.7	-5.15	-1.72
COc1cc(O)cc(O[C@@H]2O[C@H](CO)[C@@H](O[C@@H]3OC[C@](O)(CO)[C@H]3O)[C@H](O)[C@H]2O)c1OC	3.62	8.63	3.21	-4.94	7.79
CCc1ccc(CN2C(=O)c3cc(-c4ccccc4)nn3CC2(C)C(=O)NCCCOC)cc1 (stereo not given)	-5.21	-0.869	4.24	-1.33	-1.5
Cc1c(Cl)cccc1N1C(=O)c2cc3occc3n2CC1(C)C(=O)NC1CCCCCCC1 (stereo not given)	2.23	2.07	8.25	0.665	0.937
O=C(/C=C/c1ccc(O)c(O)c1)O[C@H]1[C@H](OC2CCCCC2O)O[C@H](CO)[C@@H](O)[C@@H]1O (stereo not given in full)	-10.8	-38.9	0.054	-43.7	-2.42
COc1ccc(CN2Cc3[nH]nc(-c4cnc(OC)nc4)c3CC2=O)cc1	-6.21	-2.84	-4.48	-9.3	-25.6
COc1ccc(N2C(=O)c3cc(-c4ccccc4)nn3CC2(C)C(=O)NCc2ccccc2)cc1 (stereo not given)	-4.39	5.44	0.833	-2.1	-1.18
CCC(C)/C=C(C)/C=C/C1=CC2=C(Cl)C(=O)C(C)(O)C(=O)C2(O)C(OC)O1 (stereo not given)	0	8.29	8.16	-6.02	3.84
COc1cc(O)c(C(=O)O)c(CCc2ccccc2)c1	-0.581	-7.6	-1.39	-27.3	-3.77
CNC(=O)[C@@H]1C[C@H](n2cc(-c3ccc(CN4CC[C@@H](O)C4)cc3)nn2)CN1	-3.1	2.38	-0.451	-4.03	-3.37
CCOc1ccc(-n2c([C@@H](C)N(Cc3cccnc3)C(=O)Cc3ccc(OC(F)(F)F)cc3)nc3ncccc3c2=O)cc1	-2.45	17.7	1.54	-10.5	0.107
NC(N)=NC(=O)c1nc(Cl)c(N)nc1N	-4.71	7.13	4.26	-7.09	-1.84
CC1CCCC(NC(=O)C2(C)Cn3c(cc4occc43)C(=O)N2Cc2ccco2)C1C (stereo not given)	1.82	-30.9	0.95	-1.44	-2.6
CCOC(=O)C1CCN(S(=O)(=O)c2ccc3c(c2)n(C)c(=O)n3C)CC1	12.5	0	6.91	2.82	1.74
C/C=C(\C)C(=O)OCC1OC(OC2OC(CO)C(O)C(O)C2O)C(O)C(O)C1O (stereo not given)	4.89	4.93	10.2	-6.5	-0.817

Structure (SMILES)	activity change, negative = inhibition [1] [%]	activity change, negative = inhibition [2] [%]	activity change, negative = inhibition [3] [%]	activity change, negative = inhibition [4] [%]	activity change, negative = inhibition [5] [%]
CC(C)CCNC(=O)c1cc2n(n1)CC(C)(C(=O)NC1CCCC1)N(C)C2=O (stereo not given)	2.62	2.86	-0.73	-0.14	1.01
COCCNC(=O)C[C@@H]1C[C@@H](C(C)C)[C@H](CNC(=O)c2cnccn2)C=C1C	-7.29	-5.24	-1.85	-11.2	7.24
CC1CCCC(NC(=O)C2(C)Cn3c(cc4sccc43)C(=O)N2Cc2cccs2)C1C (stereo not given)	-1.65	3.54	-1.49	-11.3	-0.925
Nc1ncnc2c1ncn2[C@H]1O[C@@H](C(=O)N2CCN(CC(=O)Nc3cccc4c3CNC4=O)CC2)[C@H](O)[C@@H]1O	-74.4	-13.8	-9.77	-21.3	-26.2
CC[C@H]1OC(=O)[C@H](C)[C@@H](O[C@H]2C[C@@](C)(OC)[C@@H](O)[C@H](C)O2)C(C)[C@@H](O[C@@H]2O[C@H](C)C[C@H](N(C)C)[C@H]2O)[C@](C)(O)C[C@@H](C)CN(C)[C@H](C)[C@@H](O)[C@]1(C)O (stereo not given in full)	-1.07	2.97	8.24	-13.3	2.07
CCN1C(=O)c2cc3ccccc3n2CC1(C)C(=O)NCC(=O)NCc1cccc(F)c1 (stereo not given)	-12.3	-1.28	-10.7	-12.5	-9.14
CC(=O)N1CCC([C@@H]2CN(Cc3cccnc3)C[C@H]2CO)CC1	-1.92	1.97	0.602	-2.99	-1.34
O=C(c1cccc([N+](=O)[O-])c1)N1CCc2c(c3ccccc3n2CC2CC2)C1	-15.3	-1.27	-9.41	-7.44	-0.85
O=C(Cc1ccccc1)N1CCCC1c1nc(CCOCC2CC2)no1 (stereo not given)	-2.47	-0.469	-0.721	-9.35	-1.54
Cc1cc(OC2CN([S+](=O)([O-])c3cccs3)C2)ccc1F	-11.6	-15.4	-36.3	-24.3	-20.7
COc1ccccc1OCCNC(=O)c1cn2ccnc(-c3ccc(C)cc3)c2n1	-3.1	-8.02	-1.23	-7.17	2.6
CC(=O)NC1(C)CCN(Cc2cnc(-c3ccc4c(ccn4C)c3)s2)CC1	-9.25	-10.2	-8.48	-16.8	-13.5
CCCNC(=O)N1CCOC[C@H](Oc2ccc(OC)cc2)C1	-2.55	-5.84	-14.9	-17.5	-7.71
CCCC1c2cccn2CCN1C(=O)Nc1ccc(C)cc1Cl (stereo not given)	1.48	1.25	-32.6	1.14	10.1
Cc1ccc(Cn2c(=O)c3ccccc3n3c(=O)n(CC(=O)Nc4ccc(C)cc4Cl)nc23)cc1	3.97	0	8.57	5.54	4.13
COCCNC(=O)C1CCc2sc(C(=O)N(C)C)cc2C1 (stereo not given)	-4.92	-2.04	-0.812	-1.98	1.01
c1ccc(CN2CCC(Cc3ccc(CN4CCCC4)cc3)CC2)nc1	-11.9	-3.05	-49.4	-4.84	-38.3
CC1(C(=O)NCc2ccccc2)Cn2c(nc3ccccc32)C(=O)N1Cc1ccccc1Cl (stereo not given)	-0.3	5.35	2.19	0.119	-0.658

— PubChem BioAssay AID1745853 (National Center for Advancing Translational Sciences (NCATS), 2022)
